We go through three molecules from patent US10064873B2, “Compounds and compositions for treating HIV with derivatives of Betulin” (GlaxoSmithKline LLC, priority 2011, dated 2018).

In this assay the test system is HIV (infection of HOS cells by the J4HxB2 cell line). Put plainly: microbe, parasite or virus in culture. It counts as cell-based. The conditions noted are these: Human immunodeficiency virus 1, HOS.
The mark [1] stands for this setting: read-out: LHIV IC50 (nM) with 40% HuS, 40% human serum.
Where [2] appears, read: no human serum, read-out: LHIV IC50.

Where two headings read alike, the source gives them in different places.

Broadly, the IC50 is the midpoint of a concentration-inhibition curve. `CC(C)C1=C2[C@H]3CC[C@@H]4[C@@]5(C)CC[C@H](OC(=O)CC(C)(C)C(=O)O)C(C)(C)[C@@H]5CC[C@@]4(C)[C@]3(C)CC[C@@]2([C@@H](O)CN(CCN(C)C)Cc2ccc(Cl)cc2)CC1=O` [Compound 51, 4-(((3aR,5aR,5bR,7aR,9S,11aR,11bR,13aS)-3a-((R)-2-((4-Chlorobenzyl)(2-(dimethylamino)ethyl)amino)-1-hydroxyethyl)-1-isopropyl-5a,5b,8,8,11a-pentamethyl-2-oxo-3,3a,4,5,5a,5b,6,7,7a,8,9,10,11,11a,11b,12,13,13a-octadecahydro-2H-cyclopenta[a]chrysen-9-yl)oxy)-2,2-dimethyl-4-oxobutanoic acid]: the IC50 (read-out: IC50 with 40% human serum, LHIV assay) came out at 10.6 nM.

In the case of `CC(C)C1=C2[C@H]3CC[C@@H]4[C@@]5(C)CC[C@H](OC(=O)CC(C)(C)C(=O)O)C(C)(C)[C@@H]5CC[C@@]4(C)[C@]3(C)CC[C@@]2([C@@H](O)CN(CCN(C)C)Cc2ccc(Cl)cc2)CC1=O` [Compound 51, 4-(((3aR,5aR,5bR,7aR,9S,11aR,11bR,13aS)-3a-((R)-2-((4-chlorobenzyl)(2-(dimethylamino)ethyl)amino)-1-hydroxyethyl)-1-isopropyl-5a,5b,8,8,11a-pentamethyl-2-oxo-3,3a,4,5,5a,5b,6,7,7a,8,9,10,11,11a,11b,12,13,13a-octadecahydro-2H-cyclopenta[a]chrysen-9-yl)oxy)-2,2-dimethyl-4-oxobutanoic acid], the IC50 under setting [1] was 10.6 nM and the IC50 under setting [2] was 1.9 nM.

For `C=C(C)[C@@H]1CC[C@]2(C(=O)O)CC[C@]3(C)[C@H](CC[C@@H]4[C@@]5(C)CC[C@H](OC(=O)CC(C)(C)C(=O)O)C(C)(C)[C@@H]5CC[C@]43C)[C@@H]12` [Bevirimat], the IC50 is, setting by setting: under setting [1], 6600 nM; under setting [2], 42 nM.
